Source: article PMC12136788
The list shows a part of the results.

T1: UNK ZnF1-3 (human, UniProt Q9C0B0 31-174)
T1 sequence: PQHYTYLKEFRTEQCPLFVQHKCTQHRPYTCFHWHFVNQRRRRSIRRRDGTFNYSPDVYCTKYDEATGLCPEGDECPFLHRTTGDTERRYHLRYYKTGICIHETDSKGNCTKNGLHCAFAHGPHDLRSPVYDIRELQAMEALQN

B1: chr18:45374997:45374998:-_ENSG00000175387_ENST00000586040|hu_hu|motif|central (ssRNA)
RNA: GGGAGUUCUACAGUCCGACGAUCUGAGGGCUGUGAUGCAUGGAAGGUUUCUCCAACCCUCUGAUUUAAUUCAUAAUAUGCGGUCGAACACCAAAAUGCAGGUUCUGAGUAAGUAACUGGCUGUAAAUCCAAGCUAUGAUUAACCAACAGAGGAUUGAGCAUCA
B2: chr3:150289932:150289933:+_ENSG00000144895_ENST00000460851|hu_hu|hu_hu_hu_mus_False|58_98 (ssRNA)
RNA: GGGAGUUCUACAGUCCGACGAUCCUUGUAGUUUUUAACAUCCCACACUUCCAUUUGUCCUCGAAGAUUUCCAAAUCCAGCUAAUACUAAUAUAUGUCCAUGAGGGCUAUAGAAGGCUGCGUUGCGAGGACCAGUCCCAAAGUCCAACAGAGGAUUGAGCAUCA
B3: chr1:39494564:39494565:+_ENSG00000168653_ENST00000372967|hu_hu|hu_hu_hu_mus_True|48_98 (ssRNA)
RNA: GGGAGUUCUACAGUCCGACGAUCAUGCAUUCGCCUCAUCGUUUUCUACCGAAGCAAGCACUCUUCGAAGUCAUCGAACUCUAUCUUGCACUCUUUCUUCGCCCGGGUCCCACCGAUCCCGUGUGCACACUCUAUCCACUCUUUCAACAGAGGAUUGAGCAUCA
B4: chr1:169100865:169100866:+_ENSG00000143153_ENST00000367816|hu_mus|FALSE|FALSE (ssRNA)
RNA: GGGAGUUCUACAGUCCGACGAUCGUGUAAAGCAUAGAGAUUAAGUGUAGGUCCCAUACGUAUGACAGUUUGUUCAAGACUAGUAGGUUUGUGUAUCUUUUUUUAACUUAUUAAAUGGCUAGUGGGAAAGAUUUGUGCUUGUGACAACAGAGGAUUGAGCAUCA
B5: chr9:114624755:114624756:+_ENSMUSG00000032435_ENSMUST00000047404|mus_mus|motif|central (ssRNA)
RNA: GGGAGUUCUACAGUCCGACGAUCGAUGUCUUCAAAAUUAUCUUCUACUUUCAAAGUCUGAAAAUUUUCAUGUAAUAUUCCGGUUUUCUUAUCAUUAUCCCACCCUGCUGGAAUAAACACUGCGUCCUUCUCCACCACCACCGCCAACAGAGGAUUGAGCAUCA
B6: chr7:128503047:128503048:+_ENSG00000128524_ENST00000249289|hu_hu|FALSE|FALSE (ssRNA)
RNA: GGGAGUUCUACAGUCCGACGAUCGGUUGUAUCCUUCUCCACCACCAGGAAAUUGGGAUGGCGGUUCUUGUUAAGCUCCCCUAUGCCGCCCAGCAGGAAACCAGUCACCGUGUCCUCGUCUCCGAUCACUGCGAUGAGCUUACCCAACAGAGGAUUGAGCAUCA
B7: chr2:28002375:28002376:+_ENSG00000243147_ENST00000296102|hu_hu|FALSE|FALSE (ssRNA)
RNA: GGGAGUUCUACAGUCCGACGAUCUUAUUACACGCUACAGGAUUUCUGAAUCAGUAUCCCCGCCCUCAGUCUUCUCUUUAUAAAUCAAAGUCAUUUUCAAUCCACCGUUUAAAGGGAGCGUAUUUUUUUCUUUUCCACGAAGAGCAACAGAGGAUUGAGCAUCA
B8: chrX:20248820:20248821:+_ENSMUSG00000001924_ENSMUST00000001989|mus_mus|mus_mus_mus_hu_True|78_88 (ssRNA)
RNA: GGGAGUUCUACAGUCCGACGAUCGGCGAAGUCCGUCACCACAAAGUCAGGCUCUACCAGUGAUGCUACCAAGGAUUUAAAGCUAAUCUUCUUAGGUACUUUGACCUGACUGACGAUGCCUCCACGGAUGUAGUCGGAGAAGUUCAACAGAGGAUUGAGCAUCA
B9: chr3:35977374:35977375:+_ENSMUSG00000027710_ENSMUST00000011492|mus_hu|FALSE|FALSE (ssRNA)
RNA: GGGAGUUCUACAGUCCGACGAUCCACAGGUAUCUUGGUGUUUUCAAAAUGGACUUCACAAGUGUUGGAGCCCCGAAUGCCUAAUUUAUCUUCGGGUUUCCCAUUAGUGACUCCACCAAAGUCUCUUUCUACUAUGAAUGCUGUCAACAGAGGAUUGAGCAUCA
B10: chr8:101932826:101932827:-_ENSG00000164924_ENST00000353245|hu_hu|FALSE|FALSE (ssRNA)
RNA: GGGAGUUCUACAGUCCGACGAUCAAAUAUAGAAAUUCAAAUAGAAGUAACAUAAACCUGUCAUAAAUCGUAAACAAAAAACUAUUUGUGGGACAGCAUGGAUGACAAAUGGUCUACUGUGUAAAUUUUAGAAUGAGGCAGACACAACAGAGGAUUGAGCAUCA
B11: 75021839_75021959_3403_3pUTR_ENSMUSG00000034593_ENSMUST00000123128|mouse|control|control (ssRNA)
RNA: GGGAGUUCUACAGUCCGACGAUCUUUCUCUGAUCGAGUUUGUUCCAGGUCUUUUCGGAGUUUUGCAAUUUCUUCCUGCAGACUAAGGACCCGCCCAGUGGCAACCUUAGCUUCCUCUUCACUUAGCUGAAGACGUUCUACAUCCAACAGAGGAUUGAGCAUCA
B12: chr8:125590379:125590380:+_ENSMUSG00000000738_ENSMUST00000108868|mus_hu|FALSE|FALSE (ssRNA)
RNA: GGGAGUUCUACAGUCCGACGAUCUCUGACUGGAUUCUGAACUAAAUGUUGUUUCAACAACAAUCCGUUGAUCCCUUCAAAGGUAGGGGUUAGCAGUCUCAAUUGUAAGCUCUGCAGAGCUCGGCCUCCAGCCUCGGCGAGGUCCAACAGAGGAUUGAGCAUCA
B13: chr1:180854502:180854503:+_ENSG00000143324_ENST00000367589|hu_hu|motif|central (ssRNA)
RNA: GGGAGUUCUACAGUCCGACGAUCAGUGUACUUUUCAUGUAUGACCAAGUAAAGAUCCCUAAAAUUUUAAAACAGGUUUUCGGUGGGAUGGCAUGAAAUCCAAUGUUCAUCCUUUAAAACUGCUGGGAGAAAUGGCUGCCAAGGCAACAGAGGAUUGAGCAUCA
B14: chr13:100201144:100201145:-_ENSMUSG00000052727_ENSMUST00000064762|mus_mus|motif|central (ssRNA)
RNA: GGGAGUUCUACAGUCCGACGAUCCUCUUCCGUUGGCGGGAUCUUAUGCGACAAACUAGAGUCCUGGAUAUCAGAGGGACGGUAGUCCACUUCAGUUGGCCCGUUUUCAGUGAUAUGAAGCACACUGGCACCCAGAGUAGGGUGCAACAGAGGAUUGAGCAUCA

Molecular target: T1, UNK ZnF1-3
Test: nsRBNS (natural sequence RNA bind-n-seq); RBNS binding buffer (assumed for nsRBNS): 25 mM Tris pH 7.5, 150 mM KCl, 3 mM MgCl2, 0.01% Triton X-100, 500 ug/ml BSA, 20 U/ml SUPERase-In, 4 C; UNK is unkempt and MSI1 is Musashi-1; names of the RNAs are library labels; protein concentration not given here; high values mean tight binding

Binder | binding signal
B1 | 1.24 enrichment R
B2 | 1.12 enrichment R
B3 | 0.67 enrichment R
B4 | 1.38 enrichment R
B5 | 0.919 enrichment R
B6 | 0.848 enrichment R
B7 | 1.09 enrichment R
B8 | 0.837 enrichment R
B9 | 0.638 enrichment R
B10 | 1.66 enrichment R
B11 | 0.551 enrichment R
B12 | 0.847 enrichment R
B13 | 1.64 enrichment R
B14 | 0.988 enrichment R
